# In the supplement of paper PMC4604168 (melanoma cell lines):
# This is one part of the list. Many values rest on one well or one pass, so single values are uncertain.
# Assays:
# Assay in all cases: cell count relative to DMSO control; melanoma cells; higher = more viable cells
# Conditions in all cases: library dose: standard library concentration; 72 h
# G361 = test system: G361
# IPC-298 = test system: IPC-298
# IST-MEL1 = test system: IST-MEL1
# LOXIMVI = test system: LOXIMVI
# MEL-HO = test system: MEL-HO
# MeWo = test system: MeWo
# RPMI7951 = test system: RPMI7951
# RVH-421 = test system: RVH-421
# LB2518-MEL = test system: LB2518-MEL
# MZ2-MEL = test system: MZ2-MEL
# 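Note: cells treated in 1,536-well plates, then fixed and DAPI-stained, with nuclei counted from automated high-throughput microscope images.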
SMILES,cell count (G361),cell count (IPC-298),cell count (IST-MEL1),cell count (LOXIMVI),cell count (MEL-HO),cell count (MeWo),cell count (RPMI7951),cell count (RVH-421),cell count (LB2518-MEL),cell count (MZ2-MEL)
"O=c1[nH]nc(Sc2ncc([N+](=O)[O-])s2)n1-c1ccc2c(c1)OCCO2 + CS(=O)(=O)CCNCc1ccc(-c2ccc3ncnc(Nc4ccc(OCc5cccc(F)c5)c(Cl)c4)c3c2)o1 [lapatinib] (first compound 1 µM, partner dose 4 µM)",82.3%,88.4%,102%,95.5%,84%,66.4%,58.2%,74.2%,–,–
"O=C(Nc1cccc(Cl)c1)Nc1ncc(CCNc2ncnc3ccsc23)s1 + CN(NC(=O)CC(=O)NN(C)C(=S)c1ccccc1)C(=S)c1ccccc1 [STA4783] (first compound 0.004 µM, partner dose 0.03 µM)",37.3%,53.5%,25.9%,45.3%,52.6%,16.8%,49.2%,57.3%,–,–
"O=c1[nH]nc(Sc2ncc([N+](=O)[O-])s2)n1-c1ccc2c(c1)OCCO2 + Nc1nc(F)nc2c1ncn2[C@@H]1O[C@H](CO)[C@@H](O)[C@@H]1O [fludarabine] (first compound 1 µM, partner dose 1 µM)",80.4%,83%,78.2%,84.7%,91.2%,90.3%,75.9%,93.5%,–,–
"CC1(C)NC(=O)N(c2ccc([N+](=O)[O-])c(C(F)(F)F)c2)C1=O [nilutamide] + CO[C@@H]1[C@H](N(C)C(=O)c2ccccc2)C[C@H]2O[C@]1(C)n1c3ccccc3c3c4c(c5c6ccccc6n2c5c31)C(=O)NC4 [Midostaurin] (first compound 5 µM, partner dose 0.4 µM)",55.7%,86.7%,79.9%,39.7%,79.6%,76.2%,37.9%,74.7%,–,–
"O=c1[nH]nc(Sc2ncc([N+](=O)[O-])s2)n1-c1ccc2c(c1)OCCO2 + O=C(O)c1ccc2c(c1)nc(Nc1cccc(Cl)c1)c1ccncc12 [CX4945] (first compound 1 µM, partner dose 2 µM)",92%,70.7%,75.3%,72.6%,59.4%,105%,62.4%,81.7%,114%,81.4%
"O=C(O)c1ccc(-c2c[nH]c3ncc(-c4ccccc4)cc23)cc1C1CCCC1 + O=C(Nc1ccccc1)c1cc([N+](=O)[O-])ccc1Cl [GW9662] (first compound 0.8 µM, partner dose 10 µM)",65.2%,85.5%,76%,93.8%,68.3%,76.9%,75.1%,80%,97.1%,74.8%
"O=c1[nH]nc(Sc2ncc([N+](=O)[O-])s2)n1-c1ccc2c(c1)OCCO2 + CCCS(=O)(=O)Nc1ccc(F)c(C(=O)c2c[nH]c3ncc(Cl)cc23)c1F [PLX4720] (first compound 1 µM, partner dose 0.4 µM)",69.4%,84.5%,96.6%,52.6%,99.4%,101%,82.5%,88.3%,121%,114%
"COc1cc(Nc2ncc(F)c(Nc3ccc4c(n3)NC(=O)C(C)(C)O4)n2)cc(OC)c1OC [Tamatinib] + Oc1nc(-c2ccc(C(F)(F)F)cc2)nc2c1CSCC2 [XAV939] (first compound 2 µM, partner dose 10 µM)",67.5%,83.9%,72.1%,42.5%,71.2%,75.1%,48.1%,88.6%,77.9%,71.5%
"COc1cc(Nc2ncc(F)c(Nc3ccc4c(n3)NC(=O)C(C)(C)O4)n2)cc(OC)c1OC [Tamatinib] + Cn1cc(/C=C2\C(=O)Nc3cccnc32)c2ccccc21 [GW441756] (first compound 2 µM, partner dose 2 µM)",71%,74.4%,78.5%,43.8%,80.3%,72.9%,54.5%,105%,72.4%,68%
"O=C(O)c1ccc(-c2c[nH]c3ncc(-c4ccccc4)cc23)cc1C1CCCC1 + Cc1cc([N+](=O)[O-])ccc1NS(=O)(=O)c1cc(Cl)ccc1Cl [FH535] (first compound 0.8 µM, partner dose 5 µM)",35.1%,51.1%,42.6%,70.6%,48.3%,79.2%,72%,66.2%,77.8%,54.8%
"COc1cc(Nc2ncc(F)c(Nc3ccc4c(n3)NC(=O)C(C)(C)O4)n2)cc(OC)c1OC [Tamatinib] + C=CCn1c(=O)c2cnc(Nc3ccc(N4CCN(C)CC4)cc3)nc2n1-c1cccc(C(C)(C)O)n1 [MK1775] (first compound 2 µM, partner dose 0.1 µM)",72.2%,74.3%,–,25.9%,62.9%,67.1%,34%,88.7%,82.4%,81.6%
"CC1(C)NC(=O)N(c2ccc([N+](=O)[O-])c(C(F)(F)F)c2)C1=O [nilutamide] + COC(=O)c1sccc1S(=O)(=O)Nc1ccc(Nc2ccccc2)cc1OC [GSK0660] (first compound 5 µM, partner dose 5 µM)",97.7%,96.3%,119%,116%,99.7%,82.9%,83.8%,103%,108%,103%
"CC1(C)NC(=O)N(c2ccc([N+](=O)[O-])c(C(F)(F)F)c2)C1=O [nilutamide] + CCN(CC)CCCCNc1ncc2cc(-c3cc(OC)cc(OC)c3)c(NC(=O)NC(C)(C)C)nc2n1 [PD173074] (first compound 5 µM, partner dose 0.5 µM)",85.4%,102%,102%,69%,109%,102%,141%,101%,98.1%,108%
"C[C@@H]1CCN(C(=O)CC#N)C[C@@H]1N(C)c1ncnc2[nH]ccc12 + CN(NC(=O)CC(=O)NN(C)C(=S)c1ccccc1)C(=S)c1ccccc1 [STA4783] (first compound 5 µM, partner dose 0.03 µM)",40.1%,92.7%,27.4%,79.9%,91.7%,16.9%,108%,65.7%,3.34%,150%
"O=C(Nc1cccc(Cl)c1)Nc1ncc(CCNc2ncnc3ccsc23)s1 + COc1cc2ncnc(Nc3ccc(Oc4ccccc4)cc3)c2cc1OC [SrcI1] (first compound 0.004 µM, partner dose 10 µM)",43%,42.8%,56.9%,88%,62.8%,53.2%,38%,79%,87%,50.2%
"Cn1cncc1[C@@](N)(c1ccc(Cl)cc1)c1ccc2c(c1)c(-c1cccc(Cl)c1)cc(=O)n2C [tipifarnib] + CN(NC(=O)CC(=O)NN(C)C(=S)c1ccccc1)C(=S)c1ccccc1 [STA4783] (first compound 0.05 µM, partner dose 0.03 µM)",31.4%,67.7%,34.4%,55.2%,82.5%,10.5%,54.4%,55.1%,18.9%,88.6%
"O=c1[nH]nc(Sc2ncc([N+](=O)[O-])s2)n1-c1ccc2c(c1)OCCO2 + Cc1ccc(NC(=O)c2cccc(N(C)C)c2)cc1NC(=O)c1ccc(O)cc1 [ZM336372] (first compound 1 µM, partner dose 10 µM)",99.7%,124%,96.5%,115%,115%,91.7%,68.1%,97.6%,82.8%,106%
"COc1cc(Nc2ncc(F)c(Nc3ccc4c(n3)NC(=O)C(C)(C)O4)n2)cc(OC)c1OC [Tamatinib] + NCC(=O)Nc1ccc(-n2nc(C(F)(F)F)cc2-c2ccc3c(ccc4ccccc43)c2)cc1 [OSU03012] (first compound 2 µM, partner dose 5 µM)",51%,65%,38.1%,15.5%,37.2%,63%,60.9%,66.9%,70.3%,76.2%
